# According to the supplement of paper PMC8728848:
# This is one part of the list.
# B1: DrGal9 (Danio rerio) (protein)
# chain: MAFYQQPPYYNPRIPFSGPIQGGLQDGKSIIISGRVLPGANRFHVNLQCGSHSEANVALHFNPRYEDTDYVVNNSYLNRTWGSEERKYESPFAQGQTFTLQILVAQDKYKISTNGRHFMDYKHRIPFTQVDTVAVEGMVEVNSVAFQNPAGFIPPQAGYAPQYAVPPGCGFPAFPSAPNYTIPHKTVMNGGLHPGKNIVINGVVNPNAKSIIFNLCYRSGIAFHYNPRFDENVVVRNTNQMEKWGAEERFGGLPFHKGQPFQVTISCNPQHYNVFVNGKQEHTYKHRYTKLNDIDILEICGDLQLTSVQA
# Columns and labels:
# Assay in all cases: glycan array binding signal (z-score within array); higher = stronger binding
# Settings in all cases: glycan notation: IUPAC condensed, linker removed
# [1] = target: Fuc(a1-2)Gal(b1-4)[Fuc(a1-3)]GlcNAc
# Procedure, shortened: (§1)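 Glycan array binding is given as a within-array Z-score, which can be read as non-binding when negative. The arrays, 3228 of them, came from the Consortium for Functional Glycomics database and were retained only where the protein sequence was available. Z-scores were averaged across arrays of the same protein sequence at different concentrations or buffers and across linkers.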
# [2] = target: Fuc(a1-2)Gal(b1-4)[Fuc(a1-3)]GlcNAc(b1-2)Man(a1-3)[Fuc(a1-2)Gal(b1-4)[Fuc(a1-3)]GlcNAc(b1-2)Man(a1-6)]Man(b1-4)GlcNAc(b1-4)[Fuc(a1-6)]GlcNAc
# Procedure, shortened: as §1
# [3] = target: Fuc(a1-2)Gal(b1-4)[Fuc(a1-3)]GlcNAc(b1-2)[Fuc(a1-2)Gal(b1-4)[Fuc(a1-3)]GlcNAc(b1-4)]Man(a1-3)[Fuc(a1-2)Gal(b1-4)[Fuc(a1-3)]GlcNAc(b1-2)Man(a1-6)]Man(b1-4)GlcNAc(b1-4)GlcNAc
# Procedure, shortened: as §1
# [4] = target: Fuc(a1-2)Gal(b1-4)[Fuc(a1-3)]GlcNAc(b1-3)Gal(b1-4)[Fuc(a1-3)]GlcNAc
# Procedure, shortened: as §1
# [5] = target: Fuc(a1-2)Gal(b1-4)[Fuc(a1-3)]GlcNAc(b1-3)Gal(b1-4)[Fuc(a1-3)]GlcNAc(b1-3)Gal(b1-4)[Fuc(a1-3)]GlcNAc
# Procedure, shortened: as §1
# [6] = target: Fuc(a1-2)Gal(b1-4)[Fuc(a1-3)]GlcNAc(b1-3)GalNAc
# Procedure, shortened: as §1
# [7] = target: Fuc(a1-2)Gal(b1-4)[Fuc(a1-3)]GlcNAc(b1-3)[Neu5Ac(a2-6)Gal(b1-4)GlcNAc(b1-6)]Gal(b1-4)Glc
# Procedure, shortened: as §1
# [8] = target: Fuc(a1-2)Gal3S(b1-4)GlcNAc
# Procedure, shortened: as §1
# [9] = target: Fuc(a1-2)Gal6S(b1-3)GlcNAc
# Procedure, shortened: as §1
# [10] = target: Fuc(a1-2)Gal6S(b1-3)GlcNAc6S
# Procedure, shortened: as §1
# Fuc(a1-2)Gal6S(b1-4)Glc = target: Fuc(a1-2)Gal6S(b1-4)Glc
# Procedure, shortened: as §1
# [11] = target: Fuc(a1-2)Gal6S(b1-4)Glc6S
# Procedure, shortened: as §1
# Fuc(a1-2)[Gal(a1-3)]Gal = target: Fuc(a1-2)[Gal(a1-3)]Gal
# Procedure, shortened: as §1
# [12] = target: Fuc(a1-2)[Gal(a1-3)]Gal(b1-3)GalNAc
# Procedure, shortened: as §1
# [13] = target: Fuc(a1-2)[Gal(a1-3)]Gal(b1-3)GalNAc(b1-3)Gal(a1-4)Gal(b1-4)Glc
# Procedure, shortened: as §1
# [14] = target: Fuc(a1-2)[Gal(a1-3)]Gal(b1-3)GlcNAc
# Procedure, shortened: as §1
# [15] = target: Fuc(a1-2)[Gal(a1-3)]Gal(b1-3)GlcNAc(b1-2)Man(a1-3)[Fuc(a1-2)[Gal(a1-3)]Gal(b1-3)GlcNAc(b1-2)Man(a1-6)]Man(b1-4)GlcNAc(b1-4)GlcNAc
# Procedure, shortened: as §1
# [16] = target: Fuc(a1-2)[Gal(a1-3)]Gal(b1-3)GlcNAc(b1-2)Man(a1-3)[Fuc(a1-2)[Gal(a1-3)]Gal(b1-3)GlcNAc(b1-2)Man(a1-6)]Man(b1-4)GlcNAc(b1-4)[Fuc(a1-6)]GlcNAc
# Procedure, shortened: as §1
# [17] = target: Fuc(a1-2)[Gal(a1-3)]Gal(b1-3)GlcNAc(b1-3)GalNAc
# Procedure, shortened: as §1
# [18] = target: Fuc(a1-2)[Gal(a1-3)]Gal(b1-3)GlcNAc(b1-6)GalNAc
# Procedure, shortened: as §1
# [19] = target: Fuc(a1-2)[Gal(a1-3)]Gal(b1-4)Glc
# Procedure, shortened: as §1
# [20] = target: Fuc(a1-2)[Gal(a1-3)]Gal(b1-4)GlcNAc
# Procedure, shortened: as §1
# [21] = target: Fuc(a1-2)[Gal(a1-3)]Gal(b1-4)GlcNAc(b1-2)Man
# Procedure, shortened: as §1
# [22] = target: Fuc(a1-2)[Gal(a1-3)]Gal(b1-4)GlcNAc(b1-2)Man(a1-3)[Fuc(a1-2)[Gal(a1-3)]Gal(b1-4)GlcNAc(b1-2)Man(a1-6)]Man(b1-4)GlcNAc(b1-4)GlcNAc
# Procedure, shortened: as §1
# [23] = target: Fuc(a1-2)[Gal(a1-3)]Gal(b1-4)GlcNAc(b1-2)Man(a1-3)[Fuc(a1-2)[Gal(a1-3)]Gal(b1-4)GlcNAc(b1-2)Man(a1-6)]Man(b1-4)GlcNAc(b1-4)[Fuc(a1-6)]GlcNAc
# Procedure, shortened: as §1
# [24] = target: Fuc(a1-2)[Gal(a1-3)]Gal(b1-4)GlcNAc(b1-3)GalNAc
# Procedure, shortened: as §1
# [25] = target: Fuc(a1-2)[Gal(a1-3)]Gal(b1-4)GlcNAc(b1-3)[Fuc(a1-2)[Gal(a1-3)]Gal(b1-4)GlcNAc(b1-6)]GalNAc
# Procedure, shortened: as §1
# [26] = target: Fuc(a1-2)[Gal(a1-3)]Gal(b1-4)GlcNAc(b1-6)GalNAc
# Procedure, shortened: as §1
# [27] = target: Fuc(a1-2)[Gal(a1-3)]Gal(b1-4)[Fuc(a1-3)]Glc
# Procedure, shortened: as §1
# [28] = target: Fuc(a1-2)[Gal(a1-3)]Gal(b1-4)[Fuc(a1-3)]GlcNAc
# Procedure, shortened: as §1
# [29] = target: Fuc(a1-2)[Gal(a1-3)]Gal(b1-4)[Fuc(a1-3)]GlcNAc(b1-3)GalNAc
# Procedure, shortened: as §1
# [30] = target: Fuc(a1-2)[Gal(a1-4)]Gal(b1-4)GlcNAc
# Procedure, shortened: as §1
# [31] = target: Fuc(a1-2)[GalNAc(a1-3)]Gal
# Procedure, shortened: as §1
# [32] = target: Fuc(a1-2)[GalNAc(a1-3)]Gal(b1-3)GalNAc(a1-3)[Fuc(a1-2)]Gal(b1-4)GlcNAc
# Procedure, shortened: as §1
# [33] = target: Fuc(a1-2)[GalNAc(a1-3)]Gal(b1-3)GalNAc(b1-3)Gal(a1-4)Gal(b1-4)Glc
# Procedure, shortened: as §1
# [34] = target: Fuc(a1-2)[GalNAc(a1-3)]Gal(b1-3)GlcNAc
# Procedure, shortened: as §1
# [35] = target: Fuc(a1-2)[GalNAc(a1-3)]Gal(b1-3)GlcNAc(b1-2)Man(a1-3)[Fuc(a1-2)[GalNAc(a1-3)]Gal(b1-3)GlcNAc(b1-2)Man(a1-6)]Man(b1-4)GlcNAc(b1-4)GlcNAc
# Procedure, shortened: as §1
# [36] = target: Fuc(a1-2)[GalNAc(a1-3)]Gal(b1-3)GlcNAc(b1-2)Man(a1-3)[Fuc(a1-2)[GalNAc(a1-3)]Gal(b1-3)GlcNAc(b1-2)Man(a1-6)]Man(b1-4)GlcNAc(b1-4)[Fuc(a1-6)]GlcNAc
# Procedure, shortened: as §1
binder,measurement,setting,value
B1,glycan array binding signal (z-score),[1],-0.397
same,glycan array binding signal (z-score),[2],-0.368
same,glycan array binding signal (z-score),[3],-0.361
same,glycan array binding signal (z-score),[4],-0.401
same,glycan array binding signal (z-score),[5],-0.402
same,glycan array binding signal (z-score),[6],-0.377
same,glycan array binding signal (z-score),[7],-0.382
same,glycan array binding signal (z-score),[8],-0.396
same,glycan array binding signal (z-score),[9],-0.391
same,glycan array binding signal (z-score),[10],-0.345
same,glycan array binding signal (z-score),Fuc(a1-2)Gal6S(b1-4)Glc,-0.385
same,glycan array binding signal (z-score),[11],-0.413
same,glycan array binding signal (z-score),Fuc(a1-2)[Gal(a1-3)]Gal,-0.377
same,glycan array binding signal (z-score),[12],-0.347
same,glycan array binding signal (z-score),[13],-0.336
same,glycan array binding signal (z-score),[14],0.251
same,glycan array binding signal (z-score),[15],2.69
same,glycan array binding signal (z-score),[16],0.621
same,glycan array binding signal (z-score),[17],-0.085
same,glycan array binding signal (z-score),[18],0.114
same,glycan array binding signal (z-score),[19],0.214
same,glycan array binding signal (z-score),[20],0.599
same,glycan array binding signal (z-score),[21],0.663
same,glycan array binding signal (z-score),[22],3.36
same,glycan array binding signal (z-score),[23],0.997
same,glycan array binding signal (z-score),[24],0.129
same,glycan array binding signal (z-score),[25],0.69
same,glycan array binding signal (z-score),[26],-0.399
same,glycan array binding signal (z-score),[27],-0.408
same,glycan array binding signal (z-score),[28],-0.387
same,glycan array binding signal (z-score),[29],-0.394
same,glycan array binding signal (z-score),[30],-0.358
same,glycan array binding signal (z-score),[31],-0.395
same,glycan array binding signal (z-score),[32],-0.418
same,glycan array binding signal (z-score),[33],-0.343
same,glycan array binding signal (z-score),[34],-0.281
same,glycan array binding signal (z-score),[35],-0.399
same,glycan array binding signal (z-score),[36],-0.402
